The first assay concerns the target Recombinant heterodimeric HCV NS3/NS4A protease (strain 1a) (Hepatitis C virus genotype 1a, UniProt P27958). As to the kind of experiment: Spectrophotometric assay for HCV serine protease inhibitory activity (chromogenic ester substrates). The assay is classed as biochemical. The following applies: Table 3, sulfide compounds; HCV serine protease; read-out: Ki* range.
For orientation: Ki means the dissociation constant of the complex between target and ligand, obtained from inhibition or displacement. With `CSCC(C)(C)NC(=O)N[C@H](C(=O)N1C[C@H]2[C@@H]([C@H]1C(=O)NC(CC1CC1)C(=O)C(N)=O)C2(C)C)C(C)(C)C` (stereo partly drawn) [Compound 114], the Ki was less than 0.075 µM.

Staying with this assay, now noted: Table 3, sulfone compounds, rows without Prep. Ex. number; read-out: Ki* (numeric value, unlabelled structures at end of sulfone table, column without head).
In the case of `C#CCCC(NC(=O)[C@@H]1[C@@H]2[C@H](CN1C(=O)[C@@H](NC(=O)NC1(CS(=O)(=O)C(C)(C)CC)CCCCC1)C1(C)CCCCC1)C2(C)C)C(=O)C(=O)NCC1CC1` (stereo partly drawn), the Ki was determined as 0.01 µM.

On to `CCC(C)(C)S(=O)(=O)CC1(NC(=O)N[C@H](C(=O)N2C[C@H]3[C@@H]([C@H]2C(=O)NC(CC2CC2)C(=O)C(=O)NC2CC2)C3(C)C)C2(C)CCCCC2)CCCCC1` (stereo partly drawn), for which the Ki is 0.013 µM.

For the compound `C#CCCC(NC(=O)[C@@H]1[C@@H]2[C@H](CN1C(=O)[C@@H](NC(=O)NC1(CS(=O)(=O)C(C)(C)CC)CCCCC1)C1(C)CCCCC1)C2(C)C)C(=O)C(=O)NC1CC1` (stereo partly drawn), the Ki came to 0.007 µM.

As for `C=CCNC(=O)C(=O)C(CC1CC1)NC(=O)[C@@H]1[C@@H]2[C@H](CN1C(=O)[C@@H](NC(=O)NC1(CS(=O)(=O)C(C)(C)C)CCCCC1)C1(C)CCCC1)C2(C)C` (stereo partly drawn), the Ki was 0.012 µM.

The same assay, now with this note: Table 3, sulfone compounds; HCV serine protease; read-out: Ki* range.
For the compound `CC(C)CCS(=O)(=O)CC1(NC(=O)N[C@H](C(=O)N2C[C@H]3[C@@H]([C@H]2C(=O)NC(CC2CCC2)C(=O)C(N)=O)C3(C)C)C(C)(C)C)CCCCC1` (stereo partly drawn) [Compound 282], the Ki was less than 0.075 µM.

On to `C=CCNC(=O)C(=O)C(CCC)NC(=O)[C@@H]1[C@@H]2[C@H](CN1C(=O)[C@@H](NC(=O)NC1(CS(=O)(=O)C(C)(C)C)CCCCC1)C1Cc3ccccc3C1)C2(C)C` (stereo partly drawn) [Compound 276], for which the Ki was less than 0.075 µM.

As to `CC(C)[C@@H](CS(=O)(=O)C(C)(C)C)NC(=O)N[C@H](C(=O)N1C[C@H]2[C@@H]([C@H]1C(=O)NC(CC1CC1)C(=O)C(N)=O)C2(C)C)C1CCCCC1` (stereo partly drawn) [Compound 155], the Ki is less than 0.075 µM.

As to `CC(C)(C)[C@H](NC(=O)NC1(CS(=O)(=O)c2ccccc2)CCCC1)C(=O)N1C[C@H]2[C@@H]([C@H]1C(=O)NC(CC1CC1)C(=O)C(N)=O)C2(C)C` (stereo partly drawn) [Compound 171], the Ki is less than 0.075 µM.

The assay is the same for the next values; noted with them: Table 3A; cells that print a number instead of a class symbol; read-out: Ki* Range.
In the case of `C=CCNC(=O)C(=O)[C@H](CCC1CC1)NC(=O)[C@@H]1[C@@H]2[C@H](CN1C(=O)[C@@H](NC(=O)NC1(CS(=O)(=O)C(C)(C)C)CCCCC1)C(C)(C)C)C2(C)C` [Compound 701], the Ki worked out at 0.006 µM.

`CC(C)(C)[C@H](NC(=O)NC1(CS(=O)(=O)C(C)(C)C)CCCCC1)C(=O)N1C[C@H]2[C@@H]([C@H]1C(=O)N[C@H](CCC1CC1)C(=O)C(=O)NC1CC1)C2(C)C` [Compound 731]: the Ki amounted to 0.064 µM.

The same assay, now with this note: Table 3A; class symbols; read-out: Ki* Range.
Regarding `C=CCNC(=O)C(=O)C(CCC1CC1)NC(=O)[C@@H]1[C@H]2CC(C)(C)O[C@H]2CN1C(=O)[C@@H](NC(=O)NC1(CS(=O)(=O)C(C)(C)C)CCCCC1)C(C)(C)C` (stereo partly drawn) [Compound 538], the Ki is less than 0.075 µM.

On to `CC(C)(C)[C@H](NC(=O)NC1(CS(=O)(=O)C(C)(C)CN2CCCC2)CCCCC1)C(=O)N1C[C@H]2[C@@H]([C@H]1C(=O)N[C@@H](CCC1CC1)C(=O)C(=O)NC1CC1)C2(C)C` [Compound 883-ar], for which the inhibition constant (Ki) was less than 0.075 µM.

With `CCCC[C@H](NC(=O)[C@@H]1[C@@H]2[C@H](CN1C(=O)[C@@H](NC(=O)NC1(CS(=O)(=O)C(C)(C)CC)CCCCC1)C1(C)CCCCC1)C2(C)C)C(=O)C(=O)NC1CC1` [Compound 883-by], the Ki is less than 0.075 µM.

As to `CC(C)(C)[C@H](NC(=O)NC1(CS(=O)(=O)C(C)(C)C)CCCCC1)C(=O)N1C[C@H]2[C@@H]([C@H]1C(=O)NC(CC1CCC1)C(=O)C(=O)NC1CC1)C2(C)C` (stereo partly drawn) [Compound 519], the Ki is less than 0.075 µM.

On to `C=CCNC(=O)C(=O)[C@H](CCC1CC1)NC(=O)[C@@H]1[C@@H]2[C@H](CN1C(=O)[C@@H](NC(=O)NC1(CS(=O)(=O)C(C)(C)C)CCCCC1)C1CCCCC1)C2(C)C` [Compound 772], for which the Ki was less than 0.075 µM.

As to `C=CCNC(=O)C(=O)C(CC1CC1)NC(=O)[C@@H]1[C@@H]2[C@H](CN1C(=O)[C@@H](NC(=O)N[C@]1(CS(=O)(=O)C(C)(C)C)CC[C@H]3C[C@@H]1C3(C)C)C1(C)CCCCC1)C2(C)C` (stereo partly drawn) [Compound 644], the Ki was 0.075 to 0.25 µM.

Regarding `C=CCNC(=O)C(=O)[C@H](CC1CC1)NC(=O)[C@@H]1[C@H]2OC(C)(C)O[C@H]2CN1C(=O)[C@@H](NC(=O)NC1(CS(=O)(=O)C(C)(C)C)CCCCC1)C(C)(C)C` [Compound 697], the Ki is less than 0.075 µM.

`CC1(C)CCS(=O)(=O)[C@@H](C2(NC(=O)N[C@H](C(=O)N3C[C@H]4[C@@H]([C@H]3C(=O)N[C@@H](CCC3CC3)C(=O)C(=O)NC3CC3)C4(C)C)C(C)(C)C)CCCCC2)C1` [Compound 883-l]: the Ki is less than 0.075 µM.

As to `CC(C)(C)[C@H](NC(=O)NC1(CS(=O)(=O)C(C)(C)C)CCCCC1)C(=O)N1C[C@H]2[C@@H]([C@H]1C(=O)NC(CCC1CC1)C(=O)C(=O)NC1CC1)C2(Cl)Cl` (stereo partly drawn) [Compound 764], the Ki was less than 0.075 µM.

For `C=CCNC(=O)C(=O)[C@H](CC1CC1)NC(=O)[C@@H]1[C@@H]2[C@H](CN1C(=O)[C@@H](NC(=O)NC1([C@@H]3CCCS3(=O)=O)CCCCC1)C(C)(C)C)C2(Cl)Cl` [Compound 828], the Ki was less than 0.075 µM.

For `CCC[C@H](NC(=O)[C@@H]1[C@@H]2[C@H](CN1C(=O)[C@@H](NC(=O)NC1(C3CCCS3(=O)=O)CCCCC1)C(C)(C)C)C2(Cl)Cl)C(=O)C(=O)NC1CC1` (stereo partly drawn) [Compound 790], the Ki was less than 0.075 µM.

In the case of `CCC[C@@H](NC(=O)[C@@H]1CC2(CN1C(=O)[C@@H](NC(=O)NC1([C@H]3CCCS3(=O)=O)CCCCC1)C1(C)CCCCC1)SCCCS2)C(=O)C(=O)NC1CC1` [Compound 849], the Ki lay in the range of 0.075 to 0.25 µM.

In the case of `C=CCNC(=O)C(=O)[C@H](CC1CC1)NC(=O)[C@@H]1[C@@H]2[C@H](CN1C(=O)[C@@H](NC(=O)NC1([C@H]3CCCS3(=O)=O)CCCCC1)C(C)(C)C)C2(Cl)Cl` [Compound 827], the Ki is less than 0.075 µM.

Take `C=CCNC(=O)C(=O)C(CCC)NC(=O)[C@@H]1[C@@H]2[C@H](CN1C(=O)[C@@H](NC(=O)NC1(CS(=O)(=O)CC(F)(F)F)CCCCC1)C(C)(C)C)C2(C)C` (stereo partly drawn) [Compound 510]: the Ki is less than 0.075 µM.

Consider `CC(=O)NC[C@@H]1C[C@@H](C(=O)NC(CC2CC2)C(=O)C(=O)NC2CC2)N(C(=O)[C@@H](NC(=O)NC2(CS(=O)(=O)C(C)(C)C)CCCCC2)C(C)(C)C)C1` (stereo partly drawn) [Compound 684], for which the Ki is greater than 0.25 µM.

Turning to `CC1([C@H](NC(=O)NC2(CS(=O)(=O)c3ccccc3)CCCCC2)C(=O)N2C[C@H]3[C@@H]([C@H]2C(=O)NC(CC2CC2)C(=O)C(=O)NC2CC2)C3(C)C)CCCCC1` (stereo partly drawn) [Compound 465], the Ki lay within 0.075 to 0.25 µM.

In the case of `CCC(C)(C)S(=O)(=O)CC1(NC(=O)N[C@H](C(=O)N2C[C@H]3[C@@H]([C@H]2C(=O)NC(CCC2CC2)C(=O)C(=O)NC2CC2)C3(C)C)C2(C)CCCCC2)CCCCC1` (stereo partly drawn) [Compound 505], the inhibition constant (Ki) was less than 0.075 µM.

As for `C=CCNC(=O)C(=O)[C@H](CC1CC1)NC(=O)[C@@H]1[C@@H]2[C@H](CN1C(=O)[C@@H](NC(=O)NC1(C3CCCS3(=O)=O)CCCCC1)C(C)(C)C)C2(C)C` (stereo partly drawn) [Compound 666], the Ki is less than 0.075 µM.

Consider `C=CCNC(=O)C(=O)C(CCCC)NC(=O)[C@@H]1[C@@H]2[C@H](CN1C(=O)[C@@H](NC(=O)NC1(C3CCCS3(=O)=O)CCCCC1)C1(C)CCCCC1)C2(C)C` (stereo partly drawn) [Compound 631], for which the Ki is less than 0.075 µM.

For the compound `CC1([C@H](NC(=O)NC2(CS(=O)(=O)CC(F)(F)F)CCCCC2)C(=O)N2C[C@H]3[C@@H]([C@H]2C(=O)NC(CCC2CC2)C(=O)C(=O)NC2CC2)C3(C)C)CCCCC1` (stereo partly drawn) [Compound 542], the Ki was less than 0.075 µM.

In the case of `C=CCNC(=O)C(=O)[C@H](CCC)NC(=O)[C@@H]1[C@@H]2[C@H](CN1C(=O)[C@@H](NC(=O)NC1(C3CCCS3(=O)=O)CCCCC1)C(C)(C)C)C2(Cl)Cl` (stereo partly drawn) [Compound 789], the Ki was less than 0.075 µM.

On to `C=CCNC(=O)C(=O)C(CCCC)NC(=O)[C@@H]1[C@@H]2[C@H](CN1C(=O)[C@@H](NC(=O)NC1(CS(=O)(=O)C(C)(C)C)CCCCC1)C1(C)Cc3ccccc3C1)C2(C)C` (stereo partly drawn) [Compound 625], for which the Ki is less than 0.075 µM.

For the compound `CC(C)CC(NC(=O)[C@@H]1[C@@H]2[C@H](CN1C(=O)[C@@H](NC(=O)NC1(CS(=O)(=O)C(C)(C)C)CCCCC1)C1CCCCC1)C2(C)C)C(=O)C(=O)NC1CC1` (stereo partly drawn) [Compound 574], the Ki fell in the range of 0.075 to 0.25 µM.

On to `C=CCNC(=O)C(=O)[C@H](CCCC)NC(=O)[C@@H]1[C@@H]2[C@H](CN1C(=O)[C@@H](NC(=O)NC1([C@H]3CCCS3(=O)=O)CCCCC1)C1CCCCC1)C2(C)C` [Compound 883-z], for which the Ki is less than 0.075 µM.

On to `C=C(F)CNC(=O)C(=O)[C@@H](CCCC)NC(=O)[C@@H]1[C@@H]2[C@H](CN1C(=O)[C@@H](NC(=O)NC1([C@H]3CCCS3(=O)=O)CCCCC1)C(C)(C)C)C2(C)C` [Compound 883-bi], for which the Ki was in the range of 0.075 to 0.25 µM.

`C=CCNC(=O)C(=O)C(CCC1CC1)NC(=O)C1C2C(CN1C(=O)C(NC(=O)NC1(C[S@TB4](=O)(=O)C3(C)CCCCC3)CCCCC1)C(C)(C)C)C2(C)C` (stereo not drawn) [Compound 711]: the Ki is less than 0.075 µM.

With `CCC(C)(C)S(=O)(=O)CC1(NC(=O)N[C@H](C(=O)N2C[C@H]3[C@@H]([C@H]2C(=O)N[C@@H](CCC2CC2)C(=O)C(=O)NC2CC2)C3(C)C)C2(C)CCCCC2)CCCCC1` [Compound 883-bx], the Ki is less than 0.075 µM.

`CCCC[C@H](NC(=O)[C@@H]1[C@@H]2[C@H](CN1C(=O)[C@@H](NC(=O)NC1([C@@H]3OCC(C)(C)S3(=O)=O)CCCCC1)C(C)(C)C)C2(C)C)C(=O)C(=O)NCC` [Compound 883-eq]: the inhibitory constant (Ki) was less than 0.075 µM.

For the compound `CCC[C@H](NC(=O)[C@@H]1[C@@H]2[C@H](CN1C(=O)[C@@H](NC(=O)NC1(CS(=O)(=O)C(C)(C)CO)CCCCC1)C(C)(C)C)C2(C)C)C(=O)C(=O)NC1CC1` [Compound 766], the inhibitory constant (Ki) is less than 0.075 µM.

Regarding `CCCC(NC(=O)[C@@H]1[C@@H]2[C@H](CN1C(=O)[C@@H](NC(=O)NC1(CS(=O)(=O)C(C)(C)C)CCCCC1)C1(C)CCCCC1)C2(C)C)C(=O)C(=O)NC(C)CC` (stereo partly drawn) [Compound 508], the Ki was 0.075 to 0.25 µM.

Turning to `CC1([C@H](NC(=O)NC2(CS(=O)(=O)C(C)(C)C)CCCCC2)C(=O)N2C[C@H]3[C@@H]([C@H]2C(=O)NC(CC2CC2)C(=O)C(=O)NCc2nccs2)C3(C)C)CCCCC1` (stereo partly drawn) [Compound 586], the Ki was less than 0.075 µM.

The values above are taken from patent US8067379B2, “Sulfur compounds as inhibitors of hepatitis C virus NS3 serine protease” (Schering Corporation, priority 2004, dated 2011).
